Test results: PubChem BioAssay AID686979 (National Center for Advancing Translational Sciences (NCATS), 2013)
Out of some 420,000 compounds screened, about 50,000 (12%) were called active. Inconclusive results, whose numbers are uncertain, are shown with a selection of clear calls. The call rests on the fitted dose curve; in most records, active means well fitted inhibition curve with a large enough effect; inconclusive means small, poorly fitted or top-dose-only effect; inactive means flat fitted curve, though single readings scatter. Potencies of inconclusive entries are left out as doubtful fits.

experiment: qHTS for Inhibitors of human tyrosyl-DNA phosphodiesterase 1 (TDP1): qHTS in cells in presence of CPT; settings: chicken DT40 Tdp1-/-;hTDP1 cells + 20 nM CPT, ATP luminescence, 48 h; activity change, negative = growth inhibition: at 46.2 µM (top of the series) unless noted; further: nearly all actives have a fitted effect of over 55% in size
Outline: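 Cell growth measured by CellTiter-Glo luminescence after a minimum 48 h, 37 C compound exposure with 20 nM CPT in Tdp1-knockout DT40 cells stably expressing hTDP1, seeded 400/well; qHTS titration format.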
On the % scale 0 is the no-effect control and ±100 the full control effect; potency means the concentration at half of the fitted maximal effect; tags describe the fitted curve by direction and shape.

SMILES	Potency	activity change, negative = growth inhibition
Cc1nn(CC(=O)NCCc2ccc(Cl)cc2)c(=O)c2cccn12	inconclusive [inhibitor, single point]	–
Cc1nc2ccc(NC(=O)c3oc4ccc(F)cc4c3C)cc2s1	–	inactive: -4.74%
COCCCN(C(=S)NC(=O)C12CC3CC(CC(C3)C1)C2)c1c(N)n(Cc2ccccc2)c(=O)[nH]c1=O	–	inactive: -3.95%
Nc1cc(Br)cc2c1[nH]c(=O)c1ccccc12	inconclusive [inhibitor, full curve]	–
CCOc1cc(N2CCOCC2)c(OCC)cc1NC(=O)COC(=O)CCc1c[nH]c2ccccc12	–	inactive: -23.7%
Fc1ccc(-c2nc3ccc(Br)cn3c2Cc2ccsc2)cc1	inconclusive [inhibitor, full curve, poor fit]	–
C=CCn1c(SCC#N)nc2sc(CC)cc2c1=O	inconclusive [inhibitor, partial curve]	–
Cc1cccc(N2CCN(c3ccc(N4C(=O)CCCC4=O)cc3[N+](=O)[O-])CC2)c1C	inconclusive [inhibitor, single point]	–
COc1cc(OC)cc(C(=O)N/N=C/c2ccc(OC)c(COc3ccc4ccccc4c3)c2)c1	active: 4.11 µM	–
Cc1ccc(C)c(N2CCN(C(=O)c3cccn3-c3nnc(N4CCCCC4)s3)CC2)c1	inconclusive [inhibitor, single point]	–
COc1ccccc1CCNC(=O)CCc1c(C)c2cc3c(C)coc3cc2oc1=O	active: 16.4 µM	–
CC(C)(C)c1ccc(Oc2ccc(NC(=O)c3cccs3)cn2)cc1	inconclusive [inhibitor, single point]	–
C=CCN1c2ccccc2[C@]23C[C@@H](C(=O)OC)N(C(=O)OCC)C2=NC(C(=O)OC)=C(C(=O)OC)[C@H]13	inconclusive [inhibitor, single point]	–
CN(C)c1ncnc2ccc(-c3cccnc3)cc12	active: 11.6 µM	–
C[C@H](NS(=O)(=O)c1ccc2c(c1)OCCCO2)C(=O)N1CCN(Cc2ccc(C#N)cc2)CC1	–	inconclusive: -33.1% [inhibitor]
CCn1c(SCC(=O)N2CCc3ccccc3C2)nc2sc(C)c(C)c2c1=O	inconclusive [inhibitor, single point]	–
COc1ccc2cc(CNc3ccccc3)c(=O)n(CC(=O)Nc3ccc(C)cc3C)c2c1	inconclusive [inhibitor, single point]	–
CC(C)[C@H](NC(=O)OCc1ccccc1)C(=O)N[C@@H](Cc1c[nH]c2ccccc12)C(=O)O	–	inactive: 2.51%
O=C(Nc1nc2cc3c(cc2s1)OCO3)C1=COCCO1	active: 8.2 µM	–
CCN1CCN(S(=O)(=O)c2ccc(Cl)c(C(=O)Nc3ccccc3N3CCOCC3)c2)CC1	inconclusive [inhibitor, single point]	–
COc1ccc(N2C(=O)CC(Sc3nc(C)cc(C)c3C#N)C2=O)cc1 (centres undefined)	–	inactive: -2.15%
Cc1nc(Cl)sc1C(=O)Nc1cccc(Cl)c1C	inconclusive [inhibitor, single point]	–
CSc1nc(N(C)NC(=O)c2ccccc2)c2ccccc2n1	active: 0.58 µM	–

SMILES	Potency	activity change, negative = growth inhibition
Cc1ccc(C(=O)CCNc2ccccc2)o1	inconclusive [inhibitor, single point]	–
O=C1S/C(=C\c2ccc(O)c([N+](=O)[O-])c2)C(=O)N1c1ccccc1Cl	inconclusive [inhibitor, single point]	–
Cc1ccc2nc(SCc3nc(-c4ccccc4C)no3)[nH]c2c1	active: 18.4 µM	–
COc1ccc(OC)c(/C=C/C(=O)OCC(=O)N2C(C)CCCC2C)c1 (centres undefined)	inconclusive [inhibitor, single point]	–
CCN(CC)CCN(C(=O)c1ccccc1OC)c1nc2ccc(F)cc2s1	inconclusive [inhibitor, single point]	–
Cc1ccc(C2CC(=O)C=C(O)C2)cc1 (centres undefined)	–	inactive: -5.57%
CCOc1cc(S(=O)(=O)N(CC)CC)ccc1Cl	–	inactive: -4.68%
COc1cc(C)ccc1S(=O)(=O)NC(=O)C1(C)CCN1C(=O)Cc1ccccc1Cl (centres undefined)	–	inactive: -8.9%
COc1ccc2c(c1)c(C(=O)N/N=C/c1ccc(Cl)cc1)c(C)n2C	inconclusive [inhibitor, single point]	–
O=C(COC(=O)/C=C/c1ccc(Cl)cc1)NC1CCS(=O)(=O)C1 (centres undefined)	inconclusive [inhibitor, single point]	–
CCOC(=O)c1ccc(NC(=O)Cn2nnc(-c3ccccc3)n2)cc1	inconclusive [inhibitor, partial curve, poor fit]	–
CCCCN(C(=O)CSc1nn(-c2ccc(F)cc2)c(=S)s1)c1c(N)n(CCCC)c(=O)[nH]c1=O	inconclusive [inhibitor, partial curve, poor fit]	–
COCCCNC(=O)C[C@@H]1C[C@@]2(C(=O)OC)CCCCC=C2N(CCC2=CCCCC2)C1=O	inconclusive [inhibitor, single point]	–
Cc1ncc(CN2CCC(C(=O)Nc3ccc(Oc4cccnc4)cc3)CC2)cn1	inconclusive [inhibitor, full curve, poor fit]	–
CCN1CCc2c(OCC(=O)Nc3cccc(C)c3)cccc2C1=O	–	inconclusive: -30.9% [inhibitor]
Cc1cccc(NC(=O)CN2CCc3cc4c(cc3C2C)OCCCO4)c1 (centres undefined)	inconclusive [inhibitor, single point]	–
C=CCOc1cccn2c(N(C)C(=O)c3ccc(OC)cc3)c(CC)nc12	inconclusive [inhibitor, partial curve]	–
CCCCN(CC)CCNC(=O)Cn1c(=O)c2cccn2c2cccnc21	–	inconclusive: -35.1% [inhibitor]
CCOc1ccc(C(=O)Nc2ccncc2)cc1	active: 10.3 µM	–
O=C(CSc1nc2c(c(=O)n1-c1ccc(F)cc1)SCC2)NCc1ccco1	inconclusive [inhibitor, full curve, poor fit]	–
Cc1ccnc(NS(=O)(=O)c2ccc(CC(C)C)cc2)c1	–	inactive: -15.7%
CC(=O)Nc1ccc(NC(=O)C2(C)Cc3c(-c4cccc(C(F)(F)F)c4)ccnc3O2)cc1 (centres undefined)	inconclusive [inhibitor, partial curve]	–
C=CCn1c(=S)[nH]c2sccc2c1=O	–	inactive: 5.75%

SMILES	Potency	activity change, negative = growth inhibition
Cc1ccc(NC(=O)Cn2c(=O)c(C(F)(F)F)nc3ccccc32)c(C)c1	–	inactive: -26.3%
Fc1ccc(-c2nc3ccc(Cl)cn3c2Cc2cccc(Cl)c2)cc1	–	inactive: -3.27%
Cc1ccc2sc(NNC(=O)C3=COCCO3)nc2c1C	–	inactive: 7.98%
CN(Cc1ccccc1)C(=O)Cn1ncc2c3ccccc3n(Cc3cccc(Cl)c3)c2c1=O	inconclusive [inhibitor, single point]	–
COc1ccc(-c2nnc3ccc(SC)nn23)cc1	inconclusive [inhibitor, single point]	–
COc1ccc(NC(=O)CSC2=Nc3ccccc3C3=NC(Cc4ccccc4)C(=O)N23)cc1Cl (centres undefined)	active: 20.6 µM	–
COc1cc(CNC(=O)c2cc(-c3cc(Cl)ccc3OC)n[nH]2)cc(OC)c1	inconclusive [inhibitor, single point]	–
CCOC(=O)C1(C)CCN1C(=O)c1cccc(C#N)c1 (centres undefined)	inconclusive [inhibitor, partial curve, poor fit]	–
COc1ccc(NC(=O)CN(c2ccc([N+](=O)[O-])cc2)S(=O)(=O)c2ccccc2)cc1	inconclusive [inhibitor, single point]	–
COC(=O)C1=C(C)N(Cc2ccccc2)C(=S)N[C@H]1c1ccc(Br)cc1	inconclusive [inhibitor, single point]	–
CC(=O)Nc1ccc(S(=O)(=O)Oc2ccc(/C=N/NC(=O)c3ccc(Cl)cc3)cc2)cc1	active: 20.6 µM	–
Cc1c(CCOC(=O)CC23CC4CC(CC(C)(C4)C2)C3)sc[n+]1Cc1ccc([N+](=O)[O-])cc1	active: 18.4 µM	–
CC(C)Sc1nnc(Cn2c(=O)sc3ccccc32)n1-c1ccccc1	inconclusive [inhibitor, single point]	–
Cc1cc(C(=O)NNC(=O)c2ccc(Cl)c(S(N)(=O)=O)c2)c(C)o1	–	inactive: -5.88%
O=C(c1ccccc1F)N1CCCC(c2ccccc2)C1 (centres undefined)	–	inactive: -22.3%
O=S(=O)(Nc1cccnc1)c1ccc(C2CCCCC2)cc1	inconclusive [inhibitor, single point]	–
CCOC(=O)CN(C(=O)CSc1nnc(CNc2ccc(C)cc2C)n1CC)c1ccccc1	inconclusive [inhibitor, partial curve]	–
CCCSc1nc2sc3c(c2c(=O)[nH]1)CCN(Cc1ccccc1)C3	inconclusive [inhibitor, single point]	–
Cc1nn(-c2ccccc2)c(C)c1/C=N/NC(=O)CSc1nnc(SCc2ccc(Cl)cc2)s1	inconclusive [inhibitor, single point]	–
O=C1CC(Nc2ccc(N3CCOCC3)cc2)C(=O)N1CCc1ccccc1 (centres undefined)	inconclusive [inhibitor, single point]	–
Cc1cccc(/C=C2/Sc3ccc(C(=O)NCCN4CCCC4)cc3NC2=O)c1	inconclusive [inhibitor, single point]	–
Clc1ccccc1CSc1nnc(Cn2cnc3ccccc32)n1-c1ccccc1	–	inconclusive: -31.4% [inhibitor]
CN1C(C(=O)NCc2cccc(Br)c2)CC2Cn3c(nc4cc5ccccc5cc43)C21 (centres undefined)	inconclusive [inhibitor, single point]	–
